Assay results: the antibiotic and cytotoxicity screens of Wong et al. (2023)
The list shows a part of the results.

System: S. aureus RN4220
Test: growth inhibition call (relative growth <= 0.2)
Conditions: 50 µM

Growth inhibition call, inactive:
C[C@@H]1CCCCO[C@H](CN(C)S(=O)(=O)c2ccc(F)cc2)[C@@H](C)CN([C@@H](C)CO)C(=O)c2cc(NS(=O)(=O)c3ccc(Cl)cc3)ccc2O1
C[C@H](CO)N1C[C@H](C)[C@@H](CN(C)S(C)(=O)=O)Oc2ccc(N(C)C)cc2C1=O
C[C@@H]1CN([C@H](C)CO)C(=O)c2cccc(NC(=O)c3ccc(-c4nccs4)cc3)c2O[C@H]1CN(C)C(=O)Nc1cccc2ccccc12
Cc1noc(C)c1NC(=O)Nc1ccc2c(c1)C(=O)N([C@@H](C)CO)C[C@H](C)[C@@H](CN(C)Cc1ccc3c(c1)OCO3)OCCCC[C@@H](C)O2
CN(C)Cc1ccc(O)c(CN(C)C)n1
COc1ccc(CN(C)C[C@@H]2OCCCC[C@H](C)Oc3ccc(NC(=O)Nc4ccc(C(F)(F)F)cc4)cc3C(=O)N([C@@H](C)CO)C[C@@H]2C)cc1
C[C@@H]1CN([C@H](C)CO)C(=O)Cc2cc(NC(=O)Nc3ccc(F)cc3)ccc2O[C@H]1CN(C)Cc1ccc(Oc2ccccc2)cc1
CC(C)(Sc1cc(C(C)(C)C)c(O)c(C(C)(C)C)c1)Sc1cc(C(C)(C)C)c(OC(=O)CCC(=O)O)c(C(C)(C)C)c1
CC(C)NC(=O)Nc1ccc2c(c1)C(=O)N([C@H](C)CO)C[C@H](C)[C@@H](CN(C)S(=O)(=O)c1ccccc1)O2
COCC(=O)Nc1ccc2c(c1)OC[C@H](C)N(C(=O)c1ccccc1F)C[C@@H](C)[C@@H](OC)CN(C)C2=O
COCCOC(=O)N1C(=O)[C@@]2(c3cc(C#Cc4ccc(OC)cc4)ccc31)[C@H](c1ccc(OCCO)cc1)N1[C@H](c3ccccc3)[C@H](c3ccccc3)OC(=O)[C@H]1[C@@H]2C(=O)N1CCN(c2ncccn2)CC1
OCC(O)CN1CCN(c2ccccc2)CC1 (centres undefined)
COc1ccc2c3c([nH]c2c1)[C@H](CO)N(C[C@]13CCN(CC1)C(=O)c1cnccn1)C(=O)c1cnccn1
C[C@H]1CN([C@@H](C)CO)C(=O)c2cccc(NC(=O)C3CCOCC3)c2O[C@@H]1CN(C)S(=O)(=O)c1cn(C)cn1
C[C@@H]1CN([C@H](C)CO)C(=O)c2cccc(NS(=O)(=O)c3ccc(F)cc3)c2O[C@H]1CN(C)Cc1ccc(-c2ccccc2)cc1
CCCNC(=O)[C@H]1[C@H](CO)[C@H]2Cn3c(ccc(-c4ccccc4OC)c3=O)[C@H]2N1S(C)(=O)=O
C[C@@H]1CCCCO[C@@H](CN(C)C(=O)Nc2cccc3ccccc23)[C@H](C)CN([C@@H](C)CO)C(=O)c2cc(NC(=O)c3ccccc3)ccc2O1
COc1ccccc1NC(=O)N(C)C[C@@H]1Oc2cc(Br)ccc2S(=O)(=O)N([C@H](C)CO)C[C@@H]1C
C[C@@H]1CN([C@@H](C)CO)C(=O)c2cccc(NC(=O)c3cnccn3)c2O[C@H]1CN(C)Cc1ccncc1
Cc1ccc(S(=O)(=O)Nc2ccc3c(c2)C(=O)N([C@H](C)CO)C[C@H](C)[C@@H](CN(C)C(=O)Nc2cccc4ccccc24)OCCCC[C@@H](C)O3)cc1
Cc1noc(C)c1NC(=O)Nc1ccc2c(c1)C(=O)N([C@@H](C)CO)C[C@@H](C)[C@H](CN(C)Cc1ccc(C(=O)O)cc1)OCCCC[C@H](C)O2
O=C(C[C@H]1CC[C@@H](NC(=O)C2CC2)[C@H](CO)O1)NCCCN1CCOCC1
C[C@H](CO)N1C[C@H](C)[C@H](CN(C)Cc2ccc(C(=O)O)cc2)Oc2c(NC(=O)C3CC3)cccc2C1=O
NCCn1nc([C@H]2CCN(C(=O)c3csc4c3CCCC4)C2)c2nccnc21
COC1=CC(=O)CC(C)C12Oc1c(Cl)c(OC)cc(OC)c1C2=O (centres undefined)
C[C@@H]1CCCCO[C@@H](CN(C)Cc2ccncc2)[C@@H](C)CN([C@H](C)CO)C(=O)c2cc(NS(=O)(=O)c3ccc(Cl)cc3)ccc2O1
O=C(CCCCCNC(=O)OCc1ccc(CO[C@@H]2C[C@H](c3ccc(C(F)(F)F)cc3)C=C(C(=O)N3CCCCCCC3)O2)cc1)NO
O=C1O[C@H](c2ccccc2)[C@H](c2ccccc2)N2[C@H]1[C@@H](C(=O)N1CCN(c3ncccn3)CC1)[C@]1(C(=O)Nc3ccc(C#CC4=CCCCC4)cc31)[C@H]2c1ccc(O)cc1
O=C(NCCCN1CCOCC1)[C@H]1N[C@H]2c3ccc(C4=CCCCC4)c(=O)n3C[C@H]2[C@@H]1CO
